System: Botrytis cinerea
Test: Activity against the grey mold in the microtiterplate test (Botrci)
Type: cell-based
Conditions: Use Example 11 comparison

SMILES: CC(O)(Cn1cncn1)c1ccc(Oc2ccc(Cl)cc2)cc1C(F)(F)F (stereo not shown) [compound I-2, 2-[4-(4-chloro-phenoxy)-2-trifluoromethyl-phenyl]-1-[1,2,4]triazol-1-yl-propan-2-ol]
- Growth (%) at 0.125 ppm Botrci: 17%
